Out of some 360,000 compounds screened, about 11,000 (3.1%) were called active. This list was built around the results that the source calls inconclusive (neither active nor inactive); the mix of calls is not that of the screen. Calls follow the shape of the dose curve; as a rule, active = well fitted inhibition curve with a large enough effect; inconclusive = small, poorly fitted or top-dose-only effect; inactive = no such curve, though single readings can be large or run the other way. No potency is given beside an inconclusive call; the fits are too rough.
molecular target: Schistosoma mansoni thioredoxin glutathione reductase (TGR) (UniProt Q962Y6); assay: qHTS Assay for the Inhibitors of Schistosoma Mansoni Peroxiredoxins; conditions: purified TGR, DTNB reduction, TNB absorbance 405 nm; activity change, negative = inhibition: at 114 µM (top of the series) unless noted; also: nearly all actives have a fitted effect of over 60% in size
Outline: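 First, TGR (20 nM dispensed) and NADPH were mixed with compound. Second, a 15 min room-temperature incubation followed. Third, further NADPH and then DTNB were added to start the reaction. Finally, TNB absorbance was monitored kinetically.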
% is scaled to controls: 0 for no effect and ±100 for the full control effect; potency is read from the fitted curve at half-maximal effect; tags tell the direction and shape of the fitted curve.

Compound | Potency | activity change, negative = inhibition
CCCCn1c(N)c(N(CC(C)C)C(=O)C(C)SCc2nc3sc(C)c(C)c3c(=O)[nH]2)c(=O)[nH]c1=O (stereo not given) | inactive | –
CCN1CCN(C2=C(NS(=O)(=O)c3ccc(C)cc3)C(=O)c3ccccc3C2=O)CC1 | inconclusive [inhibitor, partial curve] | –
O=C(NCC(c1cccnc1)N1CCN(c2ccc(F)cc2)CC1)OCc1ccccc1 (stereo not given) | inactive | –
COc1ccc(S(=O)(=O)N(CCN2CCOCC2)Cc2cc(OC)ccc2OC)cc1 | inconclusive [inhibitor, partial curve] | –
CCOC(=O)CNC1CC(=O)N(c2cccc(Cl)c2)C1=O (stereo not given) | inconclusive [inhibitor, partial curve] | –
Fc1ccccc1CNCCc1c[nH]c2ccccc12 | inconclusive [inhibitor, partial curve] | –
COc1ccc(CNC(=O)C2CCCN2C(=O)NC2CCCCC2)cc1 (stereo not given) | – | inactive: 0% [at 11.4 µM]
CC1=C(C(=O)O)N2C(=O)C(NC(=O)c3nn(C)cc3Cl)C2SC1 (stereo not given) | inactive | –
O=S(=O)(c1ccc2ccccc2c1)N1CCNCC1 | inconclusive [inhibitor, partial curve] | –
O=C(O)c1ccccc1C(=O)N1CCN(C(=O)c2ccccc2Cl)CC1 | active: 89.1 µM | –
CCCN1C(=O)CC(c2ccco2)Sc2ccccc21 (stereo not given) | active: 14.1 µM | –
CN=C1C([N+](=O)[O-])=CC=C2C1=NC1(CCCCC1)N2O | inconclusive [inhibitor, partial curve] | –
COC(=O)C1=C(c2ccc(OC)c(OC)c2)C[C@@H]2CC[C@H]1N2C(=O)NCc1ccco1 | inconclusive [inhibitor, single point] | –
CCOc1ccccc1C(=O)OCC(=O)NCC1CCCCC1 | inconclusive [inhibitor, partial curve] | –
COc1cc(CC2C(=O)Nc3ccccc32)cc(C)c1O (stereo not given) | active: 39.8 µM | –
CC(=O)c1ccc(OCC(=O)N(C)CC(=O)Nc2ccc(N3CCOCC3)cc2)cc1 | inactive | –
Cc1cccc(NC(=O)c2ccc(NC(C)c3ccccc3)c([N+](=O)[O-])c2)n1 (stereo not given) | inactive | –
CC1Sc2ccc(S(=O)(=O)CCC(=O)Nc3ccccn3)cc2NC1=O (stereo not given) | inconclusive [inhibitor, full curve, poor fit] | –
Cc1ccc2nsnc2c1S(=O)(=O)N(Cc1ccco1)Cc1cc2ccc(C)c(C)c2[nH]c1=O | inconclusive [inhibitor, partial curve] | –
CC(C)c1nn2c(=O)cc(COC(=O)c3cccc(NC(=O)c4cccs4)c3)nc2s1 | inactive | –

Reference: PubChem BioAssay AID485364 (National Center for Advancing Translational Sciences (NCATS), 2010)
